In PubChem BioAssay AID624418 (National Center for Advancing Translational Sciences (NCATS), 2012):
The campaign covered roughly 410,000 compounds. About 530 (0.13%) were called active. The inconclusive results got no clear call from the source; some entries with a clear call stand among them for comparison. Calls follow the shape of the dose curve; as a rule, active = well fitted inhibition curve with a large enough effect; inconclusive = small, poorly fitted or top-dose-only effect, or another doubt; inactive = no such curve, though single readings can be large or run the other way. Where the call is inconclusive, the potency comes from a doubtful curve fit.

Assay: qHTS of GLP-1 Receptor Inverse Agonists: Cytotox Screen
Conditions: HEK293 cAMP-luciferase reporter cells, luminescence, 24 h; series mostly up to 38.3 µM
From the text: The overall goal of this project was to develop a novel assay for discovering small molecule ligands for class B1 G protein-coupled receptors (GPCRs). Very few agonists (or inverse agonists) with generally weak activity for this entire group of physiologically important receptors are known to date. To establish proof-of-principle that this critical bottleneck can be overcome with a suitable screening approach, our studies focused on the class B1 receptor for glucagon-like peptide-1 (GLP-1R), a potential therapeutic target for diabetes and neurodegenerative disease.
The assay was developed using a cell-based functional readout. Toward this goal, stably transfected HEK293 cell clones were established that co-express (i) a cAMP-responsive luciferase reporter gene, and (ii) constitutively active GLP-1R that upon ligand interaction inhibit (inverse agonists) the luciferase activity. In addition, two control cell lines were developed: (i) one that express only the cAMP-responsive reporter gene to enable initial exclusion of GLP-1R independent effects of candidate probes; and (ii) one with the reported gene cloned with another constitutively active orphan receptor GPR119 to enable exclusion of GLP-1R independent inhibitor effects of candidate inverse agonists.
To that end, this assay was optimized for 1536-well format and screened against the MLSMR. Then the same collection was run in this cytotoxicity assay where inhibition was the undesired outcome.
NIH Molecular Libraries Probe Production Network [MLPCN]
NIH Chemical Genomics Center [NCGC]
PI Name: Martin Beinborn, Tufts Medical Center
Six ul of cell suspension (200 cells/uL in DMEM + 10% Nu serum + 1% pen-strep) is dispensed in a white solid 1536-well plate. The plates are incubated for 12 hours at 37 deg C at 5% CO2 followed by addition of 23 nL compounds. After 24 hr incubation at 37 deg C and 5% CO2, 3 uL of luciferase assay detection reagent is added. A luminescence read is obtained on the PerkinElmer Viewlux after 12 min incubation at room temperature.
Potency is read from the fitted curve at half-maximal effect.

SMILES	Potency
O=S(=O)(c1cc(F)ccc1F)N1CCN(c2ncccn2)CC1	inactive
CC(C)Oc1cc(F)ccc1-c1cc(C(=O)Nc2cccc(C(F)(F)F)c2)[nH]n1	inconclusive: 7.08 µM [inhibitor, partial curve, poor fit]
CCCC1CCC(=NNC(=S)NCCc2ccccc2)CC1 (stereo unspecified)	active: 4.47 µM
CCN(CC)S(=O)(=O)c1ccc(NC(=O)c2cccnc2Cl)c(NC(=O)c2cccnc2Cl)c1	inconclusive: 11.2 µM [inhibitor, single point]
C=CCNC(=S)N/N=C/c1ccc(-c2ccc(OC)cc2)o1	inconclusive: 1.26 µM [inhibitor, partial curve, poor fit]
N#C/C(=N\Nc1ccccc1)C(=N)N1CCOCC1	inconclusive: 11.2 µM [inhibitor, single point]
CCOc1ccc(-n2c(SCC(=O)Nc3ccc(CC)cc3)nc3c(oc4ccccc43)c2=O)cc1	inactive
COc1cc(NC(=O)c2cc(-c3cccc(OC)c3)n[nH]2)cc(OC)c1	inconclusive: 12.6 µM [inhibitor, single point]
O=C(CN1C(=O)c2cccc3cccc1c23)NCC1CCCO1 (stereo unspecified)	inactive
Cc1onc(-c2ccccc2Cl)c1C(=O)NC(=S)Nc1ccc(C(C)(C)C)cc1	inconclusive: 12.6 µM [inhibitor, partial curve, poor fit]
O=C(CN1C(=O)C2(SCC(=O)N2c2ccc(F)c(F)c2)c2ccccc21)Nc1cccc(Cl)c1 (stereo unspecified)	inconclusive: 28.2 µM [inhibitor, partial curve, poor fit]
COc1cc(OC)cc(-c2c(C#Cc3ccsc3)c3cc(-c4cc(F)cc(F)c4)ccc3n2C)c1	inconclusive: 0.501 µM [inhibitor, full curve, poor fit]
Cc1ccc2[nH]c(=O)c(CN(CCc3ccccc3)C(c3nnnn3Cc3ccco3)C(C)C)cc2c1 (stereo unspecified)	inactive
Cc1ccccc1Cn1c2ccccc2c2cnn(CC(=O)NCCCN3CCN(C)CC3)c(=O)c21	inconclusive: 28.2 µM [inhibitor, single point]
CC(=O)Nc1cc(-c2ccc(N3CCN(C)CC3)cc2)cn2c(-c3ccc(F)c(Cl)c3)cnc12	inconclusive: 6.31 µM [inhibitor, partial curve, poor fit]
CCOc1ccc(C(=O)OCC(=O)Nc2cccc(S(=O)(=O)N3CCCC3)c2)cc1	inconclusive: 11.2 µM [inhibitor, single point]
Cc1ccc(Sc2cc(C)nc(-c3ccccn3)n2)cc1	inconclusive: 10 µM [inhibitor, partial curve, poor fit]
CC(O)CNc1ccc(-c2nn(C)c(=O)c3ccccc23)cc1[N+](=O)[O-] (stereo unspecified)	inconclusive: 22.4 µM [inhibitor, single point]
Cc1onc(-c2ccccc2)c1C(=O)Nc1sc2c(c1C#N)CCC2	inconclusive: 3.98 µM [inhibitor, partial curve, poor fit]
CCCCCCN1CCN(C2CN(Cc3ccc([N+](=O)[O-])cc3)S(=O)(=O)C2)CC1 (stereo unspecified)	inconclusive: 11.2 µM [inhibitor, single point]
COc1ccccc1-c1nnc(SCC(=O)c2ccc(C3CCCCC3)cc2)n1Cc1ccco1	inconclusive: 17.8 µM [inhibitor, partial curve, poor fit]
CC(C)(C)[C@H]1CCC(=O)N([C@H](CC#N)Cc2ccccc2)CC1	inconclusive: 10 µM [inhibitor, partial curve, poor fit]

SMILES	Potency
CC(C)N(c1ccccc1)c1ccc(NC(=O)COC(=O)CCN2C(=O)c3cccc([N+](=O)[O-])c3C2=O)cc1	inconclusive: 10 µM [inhibitor, partial curve]
O=C(O)C(CC1CCCCC1)N1CCS(=O)(=O)CC1 (stereo unspecified)	inactive
COc1ccc(NC(=S)NCC2CCN(c3ccc(OC)cc3)C2)cc1 (stereo unspecified)	inconclusive: 28.2 µM [inhibitor, single point]
Cc1ccc(C(=O)N(CCN2CCCCC2)CC2CCCN(C3CCCC3)C2)s1 (stereo unspecified)	inconclusive: 1.58 µM [inhibitor, partial curve, poor fit]
Cc1cc(C(C)(C)C)ccc1NC(=O)CC(C)(C)CC(=O)O	inactive
N#Cc1ccc(NC(=O)C2Cc3ccccc3CN2S(=O)(=O)c2ccc(F)cc2)cc1 (stereo unspecified)	inactive
CC(=O)N1CCN(C(=O)c2cc(-c3cccc4ccccc34)nc3ccccc23)CC1	inconclusive: 11.2 µM [inhibitor, single point]
NC1=NC[C@H](c2ccccc2)N1CCCCC1CCCCC1	inconclusive: 3.16 µM [inhibitor, full curve]
COc1ccccc1Nc1ccc(NC(=O)c2cccc([N+](=O)[O-])c2C)cc1	inconclusive: 28.2 µM [inhibitor, single point]
O=C(Cc1ccccc1)N/N=C/c1cc(Br)cc(Cl)c1O	inconclusive: 2.82 µM [inhibitor, full curve]
CC(C)N1CCN(CCCc2ccccc2)CC1CCO (stereo unspecified)	inactive
CCOc1ccc(NC(=O)CN(C)Cc2ccc3c(c2)OCO3)cc1S(=O)(=O)N1CCCC1	inactive
COc1cc(C(=O)COC(=O)c2cc([N+](=O)[O-])ccc2N2CCOCC2)ccc1OC(F)F	inconclusive: 28.2 µM [inhibitor, single point]
NC(Cc1ccc(C(F)(F)F)cc1)c1csc(Nc2ccc(C(=O)NCc3ccco3)cn2)n1 (stereo unspecified)	inconclusive: 20 µM [inhibitor, single point]
Nc1c(-c2ccc(Cl)cc2)cnc2c(-c3ccccc3)cnn12	inactive
CC(C)c1ccc(NC(=S)NN2C(C)CCCC2C)cc1 (stereo unspecified)	inconclusive: 11.2 µM [inhibitor, single point]
COc1cc(CN2CCC(Cc3ccccc3)CC2)c([N+](=O)[O-])cc1OC	inactive
CN(C)c1ccc(C=c2c3ccccc3n3c2c2c([n+]3C)CCCC2)cc1	inconclusive: 7.94 µM [inhibitor, partial curve, poor fit]
COc1cc(/C=C2/C(=O)NN(c3ccc(Cl)cc3)C2=O)cc(OC)c1O	inconclusive: 11.2 µM [inhibitor, partial curve, poor fit]
O=S(=O)(c1ccc(Cl)cc1)c1nc(-c2ccccc2F)oc1NCc1ccccc1	inactive
Cc1ccc(NS(=O)(=O)c2ccc(OCC(=O)NCc3cccnc3)cc2)cc1	inactive
Cc1ccc(-c2cnc3n2CCCCC3)cc1	inconclusive: 22.4 µM [inhibitor, single point]

SMILES	Potency
COc1ccc(C(=O)NC(=S)Nc2cccc(Cl)c2N2CCOCC2)cc1[N+](=O)[O-]	inconclusive: 3.98 µM [inhibitor, full curve, poor fit]
CCC(Sc1nc2ncccc2[nH]1)C(=O)Nc1ccccc1F (stereo unspecified)	inactive
COc1cc(/C=N/NC(=O)c2ccncc2)ccc1OC(=O)c1cc(OC)c(OC)c(OC)c1	inactive
CC1(C)NC(=S)NC1=S	inconclusive: 28.2 µM [inhibitor, single point]
N/C(=N\O)c1ccc(N2CCN(c3ncccc3C(F)(F)F)CC2)nc1	inconclusive: 2.24 µM [inhibitor, partial curve, poor fit]
O=C(NCCc1ccccc1)C(=O)c1c(-c2ccccc2)cc2ccccn12	inactive
CCNC(=S)N/N=C/c1ccc(OCc2ccc(C(=O)OC)cc2)cc1	inactive
CS(=O)(=O)Nc1cccc(C2=NN(S(C)(=O)=O)C(c3ccc4c(c3)OCO4)C2)c1 (stereo unspecified)	inconclusive: 28.2 µM [inhibitor, single point]
O=C(Nc1ccc(Cl)cc1)C1=Cc2cc(Cl)ccc2OC1	inactive
Cn1c(=O)n(C)c2cc(/C=N/NC(=S)NCc3ccccc3)ccc21	inconclusive: 28.2 µM [inhibitor, single point]
Cc1ccccc1NS(=O)(=O)c1cc(C(=O)NCCC2=CCCCC2)ccc1C	inconclusive: 0.794 µM [inhibitor, full curve, poor fit]
CCCCNC(=O)CSc1c2c(nc3ccc(Cl)cc13)CCCC2	inactive
COc1ccc(N2CC(C(=O)Nc3nnc(SCC(=O)N4CCOCC4)s3)CC2=O)cc1 (stereo unspecified)	inconclusive: 11.2 µM [inhibitor, single point]
CCOC(=O)c1nnn(-c2nonc2N)c1-c1cccc2ccccc12	inconclusive: 12.6 µM [inhibitor, single point]
COc1cc(/C=N/Nc2nncc3ccccc23)cc(OC)c1OC	inconclusive: 7.94 µM [inhibitor, partial curve, poor fit]
CCOC(=O)N1CCN(C(=O)c2cc(-c3ccncc3)nc3ccccc23)CC1	inconclusive: 11.2 µM [inhibitor, partial curve]
Cc1ccc(/C=c2/sc3nnc(-c4ccccc4Cl)n3c2=O)o1	inactive
Cc1c(C(=O)Nc2ccc(F)cc2F)nnn1-c1ccccc1Br	inactive
Cc1ccccc1N1C(=O)CC(Sc2nnc(-c3ccccc3)o2)C1=O (stereo unspecified)	inconclusive: 28.2 µM [inhibitor, single point]
C=C(C)C(=O)OC1(C(F)(F)F)Oc2cc(C)ccc2NC1=O (stereo unspecified)	inconclusive: 31.6 µM [inhibitor, single point]
Cc1cc(F)ccc1S(=O)(=O)Nc1ccccc1C(=O)Nc1ccccc1-c1nc2ccccc2[nH]1	inconclusive: 28.2 µM [inhibitor, single point]
CC12CCC(c3n[nH]c(=S)nc31)C2(C)C (stereo unspecified)	inconclusive: 28.2 µM [inhibitor, single point]
